Source: the supplement of paper PMC4604168 (melanoma cell lines)
This is one part of the list. Repeats are few or missing, and single values can be far off.

system: SkMel30; assay: cell count relative to DMSO control; melanoma cells; higher = more viable cells; conditions: library dose: standard library concentration; 72 h
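Further: cells treated in 1,536-well plates, then fixed and DAPI-stained, with nuclei counted from automated high-throughput microscope images.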

Row | Structure (SMILES) | cell count [%]
1 | Cn1cnc2c(F)c(Nc3ccc(Br)cc3Cl)c(C(=O)NOCCO)cc21 [selumetinib] + Cc1cc([N+](=O)[O-])ccc1NS(=O)(=O)c1cc(Cl)ccc1Cl [FH535] (first compound 0.075 µM, partner dose 5 µM) | 62.9
2 | Cn1cnc2c(F)c(Nc3ccc(Br)cc3Cl)c(C(=O)NOCCO)cc21 [selumetinib] + COc1cc2ncnc(Nc3ccc(Oc4ccccc4)cc3)c2cc1OC [SrcI1] (first compound 0.075 µM, partner dose 10 µM) | 59.6
3 | C[C@]1(O)C[C@@H](c2nc(-c3ccc4ccc(-c5ccccc5)nc4c3)c3c(N)nccn32)C1 + CCc1ccc(CCOc2ccc(CC3SC(=O)NC3=O)cc2)nc1 [pioglitazone] (first compound 2 µM, partner dose 10 µM) | 93.7
4 | CCN(CC)CCNC(=O)c1c(C)[nH]c(/C=C2\C(=O)Nc3ccc(F)cc32)c1C [sunitinib] + O=S(=O)(c1ccccc1)N(CC(F)(F)F)c1ccc(C(O)(C(F)(F)F)C(F)(F)F)cc1 [T0901317] (first compound 2 µM, partner dose 7 µM) | 77.1
5 | Cn1cnc2c(F)c(Nc3ccc(Br)cc3Cl)c(C(=O)NOCCO)cc21 [selumetinib] + Oc1cc(-c2nc(-c3ccccc3)[nH]c2-c2ccncc2)ccc1Cl [L779450] (first compound 0.075 µM, partner dose 1 µM) | 52.4
6 | C[C@]1(O)C[C@@H](c2nc(-c3ccc4ccc(-c5ccccc5)nc4c3)c3c(N)nccn32)C1 + N#Cc1c(O)c2c(-c3ccc(-c4ccccc4O)cc3)csc2[nH]c1=O [A769662] (first compound 2 µM, partner dose 10 µM) | 90
7 | COc1cc([C@@H]2c3cc4c(cc3[C@@H](O[C@@H]3O[C@@H]5CO[C@@H](C)O[C@H]5[C@H](O)[C@H]3O)[C@H]3COC(=O)[C@H]23)OCO4)cc(OC)c1O [etoposide] + N#Cc1c(O)c2c(-c3ccc(-c4ccccc4O)cc3)csc2[nH]c1=O [A769662] (first compound 0.1 µM, partner dose 10 µM) | 97.8
8 | CCN(CC)CCNC(=O)c1c(C)[nH]c(/C=C2\C(=O)Nc3ccc(F)cc32)c1C [sunitinib] + COc1ccc(-c2ccc3c(N4CCOCC4)nc(N4C[C@@H](C)O[C@@H](C)C4)nc3n2)cc1CO [KU0063794] (first compound 2 µM, partner dose 0.1 µM) | 61.5
9 | CCN(CC)CCNC(=O)c1c(C)[nH]c(/C=C2\C(=O)Nc3ccc(F)cc32)c1C [sunitinib] + N#Cc1c(O)c2c(-c3ccc(-c4ccccc4O)cc3)csc2[nH]c1=O [A769662] (first compound 2 µM, partner dose 10 µM) | 68.8
10 | Cn1cnc2c(F)c(Nc3ccc(Br)cc3Cl)c(C(=O)NOCCO)cc21 [selumetinib] + CCc1ccc(CCOc2ccc(CC3SC(=O)NC3=O)cc2)nc1 [pioglitazone] (first compound 0.075 µM, partner dose 10 µM) | 54.7
11 | C[C@]1(O)C[C@@H](c2nc(-c3ccc4ccc(-c5ccccc5)nc4c3)c3c(N)nccn32)C1 + COc1ccc(-c2ccc3c(N4CCOCC4)nc(N4C[C@@H](C)O[C@@H](C)C4)nc3n2)cc1CO [KU0063794] (first compound 2 µM, partner dose 0.1 µM) | 83.3
12 | Cn1cnc2c(F)c(Nc3ccc(Br)cc3Cl)c(C(=O)NOCCO)cc21 [selumetinib] + O=c1cc(-c2cccc3c2Sc2ccccc2S3)oc(N2CCOCC2)c1 [KU55933] (first compound 0.075 µM, partner dose 5 µM) | 62.8
13 | Cn1cnc2c(F)c(Nc3ccc(Br)cc3Cl)c(C(=O)NOCCO)cc21 [selumetinib] + O=C(Nc1ccccc1)c1cc([N+](=O)[O-])ccc1Cl [GW9662] (first compound 0.075 µM, partner dose 10 µM) | 61
14 | COc1cc([C@@H]2c3cc4c(cc3[C@@H](O[C@@H]3O[C@@H]5CO[C@@H](C)O[C@H]5[C@H](O)[C@H]3O)[C@H]3COC(=O)[C@H]23)OCO4)cc(OC)c1O [etoposide] + COc1cc(N2CCC(N3CCN(C)CC3)CC2)ccc1Nc1ncc(Cl)c(Nc2ccccc2S(=O)(=O)C(C)C)n1 [NVP-TAE684] (first compound 0.1 µM, partner dose 0.4 µM) | 118
15 | Cn1cnc2c(F)c(Nc3ccc(Br)cc3Cl)c(C(=O)NOCCO)cc21 [selumetinib] + COc1ccc(COc2ccc(Cc3cnc(N)nc3N)cc2OC)cc1 [GW2580] (first compound 0.075 µM, partner dose 5 µM) | 83.6
16 | CCN(CC)CCNC(=O)c1c(C)[nH]c(/C=C2\C(=O)Nc3ccc(F)cc32)c1C [sunitinib] + Oc1cc(-c2nc(-c3ccccc3)[nH]c2-c2ccncc2)ccc1Cl [L779450] (first compound 2 µM, partner dose 1 µM) | 39.8
17 | Cn1cnc2c(F)c(Nc3ccc(Br)cc3Cl)c(C(=O)NOCCO)cc21 [selumetinib] + CCN(CC)CCCCNc1ncc2cc(-c3cc(OC)cc(OC)c3)c(NC(=O)NC(C)(C)C)nc2n1 [PD173074] (first compound 0.075 µM, partner dose 0.5 µM) | 78.8
18 | COc1cc([C@@H]2c3cc4c(cc3[C@@H](O[C@@H]3O[C@@H]5CO[C@@H](C)O[C@H]5[C@H](O)[C@H]3O)[C@H]3COC(=O)[C@H]23)OCO4)cc(OC)c1O [etoposide] + CCCCCCCCCCCC1=C(O)C(=O)C=C(O)C1=O [Embelin] (first compound 0.1 µM, partner dose 6 µM) | 108
19 | CCN(CC)CCNC(=O)c1c(C)[nH]c(/C=C2\C(=O)Nc3ccc(F)cc32)c1C [sunitinib] + Cc1cc([N+](=O)[O-])ccc1NS(=O)(=O)c1cc(Cl)ccc1Cl [FH535] (first compound 2 µM, partner dose 5 µM) | 43
20 | C[C@]1(O)C[C@@H](c2nc(-c3ccc4ccc(-c5ccccc5)nc4c3)c3c(N)nccn32)C1 + COC(=O)c1sccc1S(=O)(=O)Nc1ccc(Nc2ccccc2)cc1OC [GSK0660] (first compound 2 µM, partner dose 5 µM) | 108
21 | COc1cc([C@@H]2c3cc4c(cc3[C@@H](O[C@@H]3O[C@@H]5CO[C@@H](C)O[C@H]5[C@H](O)[C@H]3O)[C@H]3COC(=O)[C@H]23)OCO4)cc(OC)c1O [etoposide] + c1cc(-c2cnn3cc(-c4ccc(OCCN5CCCCC5)cc4)cnc23)ccn1 [Dorsomorphin] (first compound 0.1 µM, partner dose 2 µM) | 95.8
22 | C[C@]1(O)C[C@@H](c2nc(-c3ccc4ccc(-c5ccccc5)nc4c3)c3c(N)nccn32)C1 + CCN(CC)CCCCNc1ncc2cc(-c3cc(OC)cc(OC)c3)c(NC(=O)NC(C)(C)C)nc2n1 [PD173074] (first compound 2 µM, partner dose 0.5 µM) | 95.6
23 | COc1cc([C@@H]2c3cc4c(cc3[C@@H](O[C@@H]3O[C@@H]5CO[C@@H](C)O[C@H]5[C@H](O)[C@H]3O)[C@H]3COC(=O)[C@H]23)OCO4)cc(OC)c1O [etoposide] + CCN(CC)CCCCNc1ncc2cc(-c3cc(OC)cc(OC)c3)c(NC(=O)NC(C)(C)C)nc2n1 [PD173074] (first compound 0.1 µM, partner dose 0.5 µM) | 123
24 | COc1cc([C@@H]2c3cc4c(cc3[C@@H](O[C@@H]3O[C@@H]5CO[C@@H](C)O[C@H]5[C@H](O)[C@H]3O)[C@H]3COC(=O)[C@H]23)OCO4)cc(OC)c1O [etoposide] + O=C(Nc1ccccc1)c1cc([N+](=O)[O-])ccc1Cl [GW9662] (first compound 0.1 µM, partner dose 10 µM) | 74.3
25 | COc1cc([C@@H]2c3cc4c(cc3[C@@H](O[C@@H]3O[C@@H]5CO[C@@H](C)O[C@H]5[C@H](O)[C@H]3O)[C@H]3COC(=O)[C@H]23)OCO4)cc(OC)c1O [etoposide] + COc1ccc2c(c1)CCC1C2CCC2(C)C(NCCCCCCN3C(=O)C=CC3=O)CCC12 [U73122] (first compound 0.1 µM, partner dose 2 µM) | 103
26 | Cn1cnc2c(F)c(Nc3ccc(Br)cc3Cl)c(C(=O)NOCCO)cc21 [selumetinib] + O=C(O)C(=O)Nc1sc2c(c1C(=O)O)CCNC2 [TCS401] (first compound 0.075 µM, partner dose 8.33333 µM) | 72.1
27 | C[C@]1(O)C[C@@H](c2nc(-c3ccc4ccc(-c5ccccc5)nc4c3)c3c(N)nccn32)C1 + Oc1nc(-c2ccc(C(F)(F)F)cc2)nc2c1CSCC2 [XAV939] (first compound 2 µM, partner dose 10 µM) | 105
28 | COc1cc([C@@H]2c3cc4c(cc3[C@@H](O[C@@H]3O[C@@H]5CO[C@@H](C)O[C@H]5[C@H](O)[C@H]3O)[C@H]3COC(=O)[C@H]23)OCO4)cc(OC)c1O [etoposide] + Oc1cc(-c2nc(-c3ccccc3)[nH]c2-c2ccncc2)ccc1Cl [L779450] (first compound 0.1 µM, partner dose 1 µM) | 92.5
29 | C[C@]1(O)C[C@@H](c2nc(-c3ccc4ccc(-c5ccccc5)nc4c3)c3c(N)nccn32)C1 + CCCCCCCCCCCC1=C(O)C(=O)C=C(O)C1=O [Embelin] (first compound 2 µM, partner dose 6 µM) | 96.4
